# Test results from article PMC4336329 (PLoS ONE, 2015).
# Among all 310,000 compounds or so, about 2,200 (0.71%) showed an effect of 50% or more. Effects have a minus sign here. The list shows a part of the results. Where a SMILES comes first, the peptide text is derived from it. [ ]: non-standard residue; d: D form. ξ: configuration not given here. ξF = NC(Cc1ccccc1)C(=O)O
# Molecular target: human ether-à-go-go-related gene (hERG) potassium channel (human, UniProt Q12809)
# Assay: primary screen, population patch clamp on CHO cells stably expressing hERG
# Chain of human ether-à-go-go-related gene (hERG) potassium channel (Q12809 whole entry, looked up): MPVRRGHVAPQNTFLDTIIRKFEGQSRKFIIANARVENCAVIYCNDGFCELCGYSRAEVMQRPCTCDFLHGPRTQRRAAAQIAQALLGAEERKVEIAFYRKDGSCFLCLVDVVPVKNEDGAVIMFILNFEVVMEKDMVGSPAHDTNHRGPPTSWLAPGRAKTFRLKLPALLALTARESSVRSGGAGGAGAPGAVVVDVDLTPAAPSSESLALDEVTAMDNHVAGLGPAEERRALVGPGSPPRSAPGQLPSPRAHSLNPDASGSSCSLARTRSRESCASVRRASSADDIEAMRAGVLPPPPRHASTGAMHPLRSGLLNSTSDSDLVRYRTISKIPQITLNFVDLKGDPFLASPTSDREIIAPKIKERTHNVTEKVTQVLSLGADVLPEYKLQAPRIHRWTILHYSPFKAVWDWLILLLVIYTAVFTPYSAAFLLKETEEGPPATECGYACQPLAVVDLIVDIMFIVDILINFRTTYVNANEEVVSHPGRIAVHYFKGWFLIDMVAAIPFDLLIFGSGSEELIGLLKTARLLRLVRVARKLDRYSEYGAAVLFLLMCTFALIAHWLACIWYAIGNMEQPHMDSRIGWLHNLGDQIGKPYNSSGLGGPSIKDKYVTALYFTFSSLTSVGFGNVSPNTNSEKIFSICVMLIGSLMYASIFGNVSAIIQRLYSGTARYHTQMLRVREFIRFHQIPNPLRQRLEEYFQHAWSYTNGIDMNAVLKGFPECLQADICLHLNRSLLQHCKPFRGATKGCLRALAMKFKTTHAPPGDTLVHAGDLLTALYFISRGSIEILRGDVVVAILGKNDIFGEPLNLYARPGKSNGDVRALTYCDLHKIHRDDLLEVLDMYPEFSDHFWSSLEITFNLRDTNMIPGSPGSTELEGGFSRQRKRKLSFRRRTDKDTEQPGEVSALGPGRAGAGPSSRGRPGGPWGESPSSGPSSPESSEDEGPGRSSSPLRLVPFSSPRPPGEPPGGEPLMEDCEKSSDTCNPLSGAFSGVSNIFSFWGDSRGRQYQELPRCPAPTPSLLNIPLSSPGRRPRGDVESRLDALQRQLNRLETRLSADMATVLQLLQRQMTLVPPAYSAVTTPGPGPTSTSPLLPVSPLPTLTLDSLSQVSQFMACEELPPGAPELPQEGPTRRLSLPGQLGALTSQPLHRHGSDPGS
row,Compound,"hERG current change (%, negative = inhibition) at 1uM [%]"
1,COc1cc2c(cc1OC)C(c1cccc([N+](=O)[O-])c1)NC(=O)C2 (stereo not shown),-4.16
2,C/C(Cc1ccccc1)=N\NC(=O)CNC(=O)Cc1ccc(Cl)cc1,2.93
3,CC(C)CCNC(=O)NC(=O)CSc1nnc(-c2ccccc2Br)o1,1.41
4,CCOC(=O)C1CCCN(C(=S)Nc2ccc(Nc3ccccc3)cc2)C1 (stereo not shown),-4.29
5,CCc1ccc(C(=O)/C=C/NCc2ccc(F)cc2)cc1,3.85
6,C[C@H](N)C(=O)N1CCC(C(=O)N[C@@H](Cc2ccccc2)C(=O)Nc2ccc(F)cc2)CC1,-1.62
7,CN(C(=O)COc1cccc(C#N)c1)C1CCS(=O)(=O)C1 (stereo not shown),4.06
8,CSc1nc(C(=O)N2CCCC(C(=O)c3ccc(Cl)cc3)C2)cs1 (stereo not shown),18.9
9,Cc1cc(-c2ccco2)n(CC(=O)NCCCc2ccccc2)n1,14.3
10,O=C1CCCC(=O)N1c1ccc(F)cc1,10.5
11,CCNC(=S)NNC(=O)Cn1c(=O)c2c(ncn2CCOC)n(Cc2ccccc2)c1=O,8.98
12,O=C(CN1CCC(N2CCCCC2)CC1)N1CCCc2ccccc21.O=C(O)C(=O)O,25.3
13,CSCC(=O)NS(=O)(=O)c1ccc(C)cc1,11.4
14,Cc1ccccc1N1C(=O)C2ON(c3ccccc3)C(c3ccncc3)C2C1=O (stereo not shown),6.28
15,CCS(=O)(=O)N1CCC(C(=O)NCc2ccc(OC)cc2OC)CC1,0.819
16,CCN1CCN(C(=O)C(NS(=O)(=O)c2ccc3nc(C)sc3c2)C(C)C)CC1 (stereo not shown),3.53
17,CCOC(=O)c1nnn(CC(=O)Nc2cc(F)ccc2F)c1C(=O)OCC,5.94
18,O=C(COc1ccc2c(-c3ccccc3)cc(=O)oc2c1)NCC1CCC(C(=O)O)CC1 (stereo not shown),11.5
19,O=C(NCCCn1ccnc1)C1CC(c2ccccc2Cl)=NO1 (stereo not shown),10
20,COc1ccc(/C=C2\SC(=S)N(CC(=O)NC3C=CS(=O)(=O)C3)C2=O)cc1 (stereo not shown),18
21,Br.CN1CCN(C(=O)Cc2ccccc2)CC1,13.9
22,CCCc1nnc(NC(=O)C2CCN(C(=O)C3CC(=O)N(c4ccc(C)cc4)C3)CC2)s1 (stereo not shown),11.2

row,Compound,"hERG current change (%, negative = inhibition) at 1uM [%]"
1,O=C(O)CCC(=O)N1c2ccccc2NC2=C(C(=O)CC(c3ccc(F)cc3)C2)C1c1ccc([N+](=O)[O-])o1 (stereo not shown),16.6
2,CCOc1ncccc1C(=O)OCC(=O)Nc1cc(C)ccc1C,9.63
3,O=C(Nc1ccc2c(c1)OCCO2)c1ccccc1F,6.56
4,NC(=O)c1nsc(C(=O)N(c2ccc(F)cc2)C(C(=O)NCC2CCCO2)c2ccc3ncccc3c2)c1N (stereo not shown),-1.47
5,COc1ccccc1OCc1ccc(C(=O)NC2CCCCC2)o1,6.11
6,CCCCOc1ccc(C(=O)NCC(=O)NCCCn2nc(C)cc2C)cc1,7.22
7,CCOc1cccc(-c2nnc(SCC(=O)Nc3cc(C)ccc3OC)n2N)c1,-3.42
8,N#CC(C#N)=c1ccc2c(c1)N1C(c3ccccc3)=CC(c3ccccc3)C3CCCCC31N=2 (stereo not shown),7.27
9,CC1(C(O)(C#CC[N+]2(C)CCCCC2)c2ccccc2)CCCC1.[I-] (stereo not shown),21.9
10,C=CCOc1cccc(C2/C(=C(/O)c3ccc(F)cc3)C(=O)C(=O)N2CCN2CCOCC2)c1 (stereo not shown),12.9
11,Cc1ccc(NC(=O)CCc2nnc(SCC(=O)Nc3ccccc3C)n2C)cc1Cl,11.7
12,Cc1cc(C(=O)Cn2cnc3ccccc3c2=O)c(C)n1C1CC1,6.06
13,CCn1c(=O)c(C(=O)NCCCc2ccccc2)c(O)c2ccccc21,10.8
14,Nc1nnnn1CC(=O)N/N=C/c1cc([N+](=O)[O-])ccc1Cl,20.8
15,COc1ccccc1-n1c(SCC(N)=O)nc2c(c1=O)SCC2,8.14
16,Cc1nn(-c2ccccc2)c2sc(C(=O)c3c(N)n(C)c(=O)n(C)c3=O)cc12,1.87
17,COc1cc([C@H](Cc2ccccc2)NC(C)=O)oc(=O)c1,2.59
18,COCCNC(=O)CC(c1ccccc1)c1ccccc1,5.83
19,COc1ccc(CNC(=O)CCS(=O)(=O)c2ccc3c(c2)NC(=O)CS3)cc1,13.6
20,N#C/C(=C(/O)CSc1ccccc1C(=O)O)c1nc2ccccc2s1,11.7
21,CCOC(=O)N1CCN(S(=O)(=O)c2ccc(C(=O)Nc3nnc(CSC)o3)cc2)CC1,-4.18
22,O=C(NCc1ccncc1)C(=O)Nc1nccs1,18.8

row,Compound,"hERG current change (%, negative = inhibition) at 1uM [%]"
1,CC(C)Cn1c(N)cc(=O)n(C)c1=O,17
2,O=C(Nc1nc(COc2ccccc2)cs1)c1ccccc1F,11.9
3,COC(=O)c1ccc(/C=N/Nc2nc(C)c(C)s2)cc1,13.3
4,COc1ccc(C(CNC(=O)C2CC(=O)N(Cc3ccccc3)C2)N2CCCC2)cc1 (stereo not shown),7.46
5,COc1nc(-c2ccccc2)c2cc(Br)ccc2n1,5.04
6,Cl.O=C(C(c1ccccc1)N1CCOCC1)N1CCOCC1 (stereo not shown),-5.9
7,Cc1nc(CCNC(=O)c2cc(COc3ccc(F)cc3Cl)on2)sc1C,6.73
8,COc1cccc(OC)c1OCCN1CCN(C(c2ccccc2)c2ccccc2)CC1,-5.79
9,COc1cccc(NC(=O)C(C)Oc2ccccc2)c1 (stereo not shown),7.93
10,COc1cc(S(=O)(=O)NCCN2CCOCC2)c(OC)cc1Cl,4.64
11,CCOC(=O)C(Cc1ccccc1)NC(=O)CNC(C)=O (stereo not shown) (Ac-Gly-[ξF]-OEt),-11.5
12,Cn1cnnc1SCC(=O)Nc1ccccc1,8.15
13,NNc1nc(-c2ccccc2)c2cc(Br)ccc2n1,12.7
14,CC(=O)c1ccc(-c2cccs2)s1,6.1
15,O=c1cc(C(F)(F)F)nc(-c2ccccc2OC(F)(F)F)[nH]1,6.78
16,COc1ccc(CCn2c(SCC(=O)Nc3cc(C)on3)nc3ccsc3c2=O)cc1OC,12.7
17,Cn1nccc1C(=O)Oc1ccc(/C=N/NC(=O)c2ccccc2O)cc1,17.1
18,C=C1[C@@H](OC(C)=O)CC[C@]2(C)[C@@H]1C[C@@H]1C[C@H](OC(C)=O)C(C)=C([C@@H](OC(C)=O)[C@@H]2OC(C)=O)C1(C)C,6.94
19,Cc1nn(C)c(Cl)c1CN1CCN(C2CCCCC2)C(CCO)C1 (stereo not shown),-0.475
20,COc1ccc(-n2cc(-c3ccccc3)c3c(NCCCN4CCOCC4)ncnc32)cc1,4.12
21,COc1ccc2c(c1)CCc1c(C(=O)Nc3ccc(OC)c(OC)c3)noc1-2,8.64
22,Cc1cc(C)c(NC(=O)CS(=O)CC(=O)Nc2ccc(F)cc2F)c(C)c1 (stereo not shown),15.4

row,Compound,"hERG current change (%, negative = inhibition) at 1uM [%]"
1,CC(C)=C1C2C=CC1C(C(=O)Nc1cccc(C)c1)C2C(=O)O (stereo not shown),7.5
2,O=C(N/N=C/c1cccc(OC(=O)c2ccc([N+](=O)[O-])cc2)c1)c1cccnc1,14.1
3,c1ccc(C2=Nn3c(nnc3-c3ccco3)SC2)cc1,2.41
4,COc1ccc(NC(=O)C(=O)NNC(=O)COc2ccc(Cl)cc2)c(OC)c1,-4.03
5,O=C(CN(Cc1ccco1)C(=O)Cn1nnc(-c2cccs2)n1)NCC1CCCO1 (stereo not shown),12.7
6,COc1ccc(CNC(=O)c2cc(C(=O)C3CC3)c[nH]2)cc1,-2.9
7,Cc1cc(/C=N/NC(=O)C(=O)N2CCCC2)c(C)n1-c1cccc(Br)c1,12.6
8,COc1ccc(NC(=O)COC(=O)CCCOc2ccc(Cl)cc2Cl)cc1,7.33
9,NS(=O)(=O)c1ccc(CCNC(=O)CCCn2c(=O)[nH]c3ccc(Br)cc3c2=O)cc1,11.6
10,CC(C)C(=O)NC(c1cccs1)c1cc([N+](=O)[O-])c2cccnc2c1O (stereo not shown),12.1
11,Cc1noc(C)c1CSCC(=O)Nc1cc(C(F)(F)F)ccc1N1CCCCC1,-7.13
12,COc1ccc(C(=O)NC2CCN(S(=O)(=O)Cc3ccccc3)CC2)c(OC)c1,2.24
13,C/C(Cn1cnc([N+](=O)[O-])n1)=N\NC(=O)c1ccccc1O,1.89
14,CCCCNC(=O)Nc1nc2ccc(CC)cc2s1,15.1
15,O=C(NCCO)c1nc(NCCO)c2ccccc2n1,8.52
16,Cc1cc(C)n(-c2nc3ccccc3[nH]c2=O)n1,17.5
17,Cc1ccc(NC(=O)C(=O)NNC(=O)c2cccs2)cc1,10.9
18,Cc1ccc(N(C(=O)CCC(=O)Nc2cc(C)on2)C(C(=O)NC2CCCC2)c2ccccc2)cc1 (stereo not shown),11.1
19,CCCCCC(=O)NN=C1CCN(Cc2ccccc2)CC1,4.09
20,C=CCn1c2ccccc2c2nnc(SCCN3CCCCC3)nc21,-13.2
21,CCC1C2Cn3c(nc4ccccc43)C1N(C)O2 (stereo not shown),-5.38
22,O=C(O)/C=C/C(=O)Nc1ccc2c(c1)C(=O)c1ccccc1C2=O,10.2
